# Experimental data as given in patent US20160145328A1 (published 2016).
# Target: mouse interleukin 21 (mouse, UniProt Q9ES17 18-146)
# Assay: SPR (Biacore), biotinylated mIL-21 on streptavidin chip, purified VH injected from 4 µM down
# Procedure: The affinities of VH clones G07 (anti-hTNF; SEQ ID NO: 5) and G11 (anti-mIL-21; SEQ ID NO: 6) were measured using surface plasmon resonance (using a Biacore machine; GE Healthcare). For this purpose, biotinylated antigen diluted in PBS was injected over a streptavidin (SA) sensor chip (Biacore AB). Serial dilutions of purified VH (with concentrations ranging from about 0.125 to 4 μM) were injected at a flowrate of about 20 μl/min over the flow cell containing the corresponding target antigen. Equilibrium dissociation constants were calculated using the BIAevaluation 4.1 software package (Biacore AB).
# Two clones selected for their binding to human tumour necrosis factor (hTNF) or mouse interleukin 21 (mIL-21) were isolated from the Garvan-I libraries, as detailed above (see Materials and Methods section). […] Biacore affinity measurements of anti-human TNF clone G07 (SEQ ID NO: 5) and anti-mouse IL-21 clone G11 (SEQ ID NO: 6) were performed. Serial dilutions of each purified protein, starting at 4 μM, were run on a streptavidin (SA) chip coated with biotinylated hTNF and mIL-21, respectively.
binder,measurement,value
"VHmIL21_G11 (anti-mIL-21 VH) (other, not shown: small tags and cut ends, also called clone G11; anti-mouse IL-21 clone G11) VH: QVQLLESGGGLVQPGGSLRLSCAASGFRISDEDMGWVRQAPGKGLEWVSSIYGPSGSTYYADSVKGRFTISRDNSKNTLYLQMNSLRAEDTAVYYCASASNTYEDMLGFWGQGTLVTVSS",Kd,4.07 µM
